According to ChEMBL document CHEMBL5606460, “ASAP - DENV-2 NS2B-NS3 protease fluorescence single point” (2024):
The campaign covered roughly 2,000 compounds. About 110 (5.5%) showed an effect of 50% or more. Some of the results follow.

Target: Genome polyprotein (dengue virus type 2) (UniProt P29990)
[1] = Thailand/16681/1984, Concentration 25.0 uM, Number of replicates 1.0

`CNC(=O)C1(C)CCN(C(=O)C2CCN(c3ccc(C=O)cc3)CC2)CC1` showed an inhibition [1] of 13.1%.
With `NCc1cccc(NC(=O)c2cccc(NC(=O)OCc3ccccc3)n2)c1` the inhibition (Thailand/16681/1984, Concentration 49.5 uM, Number of replicates 2.0, Standard deviation 2.6942952851224518 %) was -4.63%, the inhibition (Thailand/16681/1984, Concentration 99.01 uM, Number of replicates 2.0, Standard deviation 2.660477496814281 %) was -4.61% and the inhibition (Thailand/16681/1984, Concentration 198.0 uM, Number of replicates 2.0, Standard deviation 1.4247947815728461 %) was -5.3%.
Work on `CC(C)c1ccc2c(c1)CC[C@H]1[C@](C)(CNC(=O)C3CCN(c4ccc(C=O)cc4)CC3)CCC[C@]21C` yielded an inhibition [1] of 13.6%.
Work on `O=Cc1ccc(N2CCC(C(=O)NCCc3ccc(Cl)cc3Cl)CC2)cc1` yielded an inhibition [1] of 9.31%.
`Cn1cc(CN)c(NS(=O)(=O)c2ccc(Oc3ccccc3)cc2)n1` was tested, and the inhibition (Thailand/16681/1984, Concentration 49.5 uM, Number of replicates 2.0, Standard deviation 0.6848191905191987 %) was -3.59%, the inhibition (Thailand/16681/1984, Concentration 99.01 uM, Number of replicates 2.0, Standard deviation 2.0059841439104287 %) was -3.49% and the inhibition (Thailand/16681/1984, Concentration 198.0 uM, Number of replicates 2.0, Standard deviation 0.9540026825885767 %) was -3.42%.
Work on `C[C@@H]1CN(C2CCN(C(=O)C3CCN(c4ccc(C=O)cc4)CC3)CC2)C[C@H](C)O1` yielded an inhibition [1] of 12%.
With `NCc1cccc(NC(=O)[C@]2(NC(=O)OCc3ccccc3)CCOC2)c1` the inhibition (Thailand/16681/1984, Concentration 49.5 uM, Number of replicates 2.0, Standard deviation 1.426129993733671 %) was -5.37%, the inhibition (Thailand/16681/1984, Concentration 99.01 uM, Number of replicates 2.0, Standard deviation 1.4283546729854701 %) was -5.77% and the inhibition (Thailand/16681/1984, Concentration 198.0 uM, Number of replicates 2.0, Standard deviation 1.6552894897579518 %) was -5.76%.
In the case of `O=Cc1ccc(N2CCC(C(=O)N3CCN(C(=O)c4ccco4)CC3)CC2)cc1`, the inhibition [1] is reported as 13.3%.
Compound `CN(Cc1cccc2ccccc12)C(=O)C1CCN(c2ccc(C=O)cc2)CC1` has an inhibition [1] of 11.3%.
For `C[C@@H](NC(=O)c1cc(Cl)ccc1NS(=O)(=O)c1ccc(Oc2ccccc2Cl)cc1)C1COC1`, the inhibition (Thailand/16681/1984, Concentration 49.5 uM, Number of replicates 2.0, Standard deviation 0.4885797549298071 %) was 59.2%, the inhibition (Thailand/16681/1984, Concentration 99.01 uM, Number of replicates 2.0, Standard deviation 0.152624190876378 %) was 68.4% and the inhibition (Thailand/16681/1984, Concentration 198.0 uM, Number of replicates 2.0, Standard deviation 0.02447349481851786 %) was 59.2%.
For `O=C1COc2cccc(CN3CCC(c4c[nH]c5cccnc45)CC3)c2N1`, the inhibition (Thailand/16681/1984, Concentration 49.5 uM, Number of replicates 2.0, Standard deviation 3.2596996411683405 %) was 0.091%, the inhibition (Thailand/16681/1984, Concentration 99.01 uM, Number of replicates 2.0, Standard deviation 3.614501421414507 %) was 1.45% and the inhibition (Thailand/16681/1984, Concentration 198.0 uM, Number of replicates 2.0, Standard deviation 3.7781576131088843 %) was 2.78%.
For `O=Cc1ccc(N2CCC(C(=O)Nc3cccc(-c4ccccc4)c3)CC2)cc1`, the inhibition [1] was 9.81%.
`N#CCCN(Cc1cccnc1)C(=O)C1CCN(c2ccc(C=O)cc2)CC1` gave an inhibition [1] of 17.5%.
`N#Cc1ccc(Cl)c(NC(=O)C2CCN(c3ccc(C=O)cc3)CC2)c1` was tested, and the inhibition [1] was 12.7%.
`NCc1cccc(NC(=O)[C@H]2c3ccccc3OCCN2C(=O)OCc2ccccc2)c1` showed an inhibition (Thailand/16681/1984, Concentration 49.5 uM, Number of replicates 2.0, Standard deviation 1.7656972055296958 %) of -3.82%, an inhibition (Thailand/16681/1984, Concentration 99.01 uM, Number of replicates 2.0, Standard deviation 2.8588695958622563 %) of -2% and an inhibition (Thailand/16681/1984, Concentration 198.0 uM, Number of replicates 2.0, Standard deviation 1.1430363557817578 %) of 4.7%.
`O=Cc1ccc(N2CCC(C(=O)Nc3ncc(Br)cc3O)CC2)cc1` was tested, and the inhibition [1] was 52.8%.
`Cc1nccn1-c1ccc(NC(=O)C2CCN(c3ccc(C=O)cc3)CC2)cc1` showed an inhibition [1] of 16.6%.
For `CC(C)(C)c1ccc(O)c(NC(=O)C2CCN(c3ccc(C=O)cc3)CC2)c1`, the inhibition [1] was 15.4%.
Compound `Cc1cc(CO)c2cccc(CC(=O)Nc3cccc(C(N)=O)c3)c2n1` has an inhibition (Thailand/16681/1984, Concentration 49.95 uM, Number of replicates 2.0, Standard deviation 0.3351031861891448 %) of 71.5% and an inhibition (Thailand/16681/1984, Concentration 99.9 uM, Number of replicates 2.0, Standard deviation 0.3101738310571331 %) of 94.2%.
In the case of `O=Cc1ccc(N2CCC(C(=O)Nc3ccc(-c4ccccc4)cc3)CC2)cc1`, the inhibition [1] is reported as 7.56%.
Compound `O=Cc1ccc(N2CCC(C(=O)N3CCN(CCc4ccccc4)CC3)CC2)cc1` has an inhibition [1] of 33%.
`O=Cc1ccc(N2CCC(C(=O)NCc3noc(-c4ccco4)n3)CC2)cc1` showed an inhibition [1] of 12.6%.
Work on `O=Cc1ccc(N2CCC(C(=O)N3Cc4ccc(Br)cc4C3)CC2)cc1` yielded an inhibition [1] of 14.2%.
`CNC(=O)c1cc(Cl)ccc1NS(=O)(=O)c1ccc(CN(C)C)cc1` gave an inhibition (Thailand/16681/1984, Concentration 49.5 uM, Number of replicates 2.0, Standard deviation 2.702318864967168 %) of -1.49%, an inhibition (Thailand/16681/1984, Concentration 99.01 uM, Number of replicates 2.0, Standard deviation 0.41666131566655296 %) of -0.19% and an inhibition (Thailand/16681/1984, Concentration 198.0 uM, Number of replicates 2.0, Standard deviation 0.6338418186019992 %) of 1.72%.
With `Cc1cc(CO)c2cccc(NCC3CCNCC3)c2n1` the inhibition (Thailand/16681/1984, Concentration 49.95 uM, Number of replicates 2.0, Standard deviation 0.8313641199663653 %) was -6.22% and the inhibition (Thailand/16681/1984, Concentration 99.9 uM, Number of replicates 2.0, Standard deviation 1.3048073716258033 %) was 0.772%.
With `Cc1cc(CO)c2cccc(C[C@H](NC(=O)C(=O)c3ccco3)C(=O)O)c2n1` the inhibition (Thailand/16681/1984, Concentration 49.95 uM, Number of replicates 2.0, Standard deviation 2.1984135254678594 %) was 1.13% and the inhibition (Thailand/16681/1984, Concentration 99.9 uM, Number of replicates 2.0, Standard deviation 0.8113996635889369 %) was 5.56%.
With `CNC(=O)c1nc(Cl)ccc1NS(=O)(=O)c1ccc(Oc2ccccc2Cl)cc1` the inhibition (Thailand/16681/1984, Concentration 49.5 uM, Number of replicates 2.0, Standard deviation 0.5855266102241418 %) was 6.34%, the inhibition (Thailand/16681/1984, Concentration 99.01 uM, Number of replicates 2.0, Standard deviation 0.14494638377684543 %) was 6.62% and the inhibition (Thailand/16681/1984, Concentration 198.0 uM, Number of replicates 2.0, Standard deviation 0.056926230997118174 %) was 4.4%.
`O=Cc1ccc(N2CCC(C(=O)N3CC[C@@]4(O)CCCC[C@H]4C3)CC2)cc1` gave an inhibition [1] of 13.8%.
`CNC(=O)c1cc(Cl)ccc1NS(=O)(=O)c1ccc(OC)nc1` showed an inhibition (Thailand/16681/1984, Concentration 49.5 uM, Number of replicates 2.0, Standard deviation 0.9512953587010552 %) of -0.281%, an inhibition (Thailand/16681/1984, Concentration 99.01 uM, Number of replicates 2.0, Standard deviation 1.3945954055764564 %) of 0.501% and an inhibition (Thailand/16681/1984, Concentration 198.0 uM, Number of replicates 2.0, Standard deviation 1.9130696672739496 %) of 1.69%.
`O=Cc1ccc(N2CCC(C(=O)N3CCN(C(=O)[C@@H]4CCCO4)CC3)CC2)cc1` was tested, and the inhibition [1] was 13.2%.
With `C[C@@H](C(=O)NCc1ccc(N2CCN(C)CC2)cc1)c1ccccc1` the inhibition (Thailand/16681/1984, Concentration 49.5 uM, Number of replicates 2.0, Standard deviation 0.5938509183696951 %) was 0.242%, the inhibition (Thailand/16681/1984, Concentration 99.01 uM, Number of replicates 2.0, Standard deviation 1.5516151545043084 %) was 0.125% and the inhibition (Thailand/16681/1984, Concentration 198.0 uM, Number of replicates 2.0, Standard deviation 1.8826140805854623 %) was 0.385%.
`O=Cc1ccc(N2CCC(C(=O)N3CCC(N4CCCC4=O)CC3)CC2)cc1` was tested, and the inhibition [1] was 12.4%.
`Cc1cc(CO)c2cccc(NC(=O)C3CCC(N)CC3)c2n1` (centres undefined) was tested, and the inhibition (Thailand/16681/1984, Concentration 49.95 uM, Number of replicates 2.0, Standard deviation 0.3430335372049546 %) was 80.8% and the inhibition (Thailand/16681/1984, Concentration 99.9 uM, Number of replicates 2.0, Standard deviation 0.009052468710563864 %) was 98.8%.
`Nc1ccc2c(Cl)cccc2n1` gave an inhibition (Thailand/16681/1984, Concentration 49.95 uM, Number of replicates 2.0, Standard deviation 6.716644341731542 %) of -6.5% and an inhibition (Thailand/16681/1984, Concentration 99.9 uM, Number of replicates 2.0, Standard deviation 7.103273230337014 %) of -6.29%.
Compound `Cc1nn(Cc2cccc(F)c2F)cc1C1CCNCC1` has an inhibition (Thailand/16681/1984, Concentration 49.5 uM, Number of replicates 2.0, Standard deviation 0.22901046476794615 %) of -2.99%, an inhibition (Thailand/16681/1984, Concentration 99.01 uM, Number of replicates 2.0, Standard deviation 0.3068924460194689 %) of -2.95% and an inhibition (Thailand/16681/1984, Concentration 198.0 uM, Number of replicates 2.0, Standard deviation 1.605854523908857 %) of -2.42%.
Compound `COCC[C@@H](NC(=O)OCc1ccccc1)C(=O)Nc1cccc(CN)c1` has an inhibition (Thailand/16681/1984, Concentration 49.5 uM, Number of replicates 2.0, Standard deviation 0.33482864161794484 %) of -1.87%, an inhibition (Thailand/16681/1984, Concentration 99.01 uM, Number of replicates 2.0, Standard deviation 0.002886469067117089 %) of -1.32% and an inhibition (Thailand/16681/1984, Concentration 198.0 uM, Number of replicates 2.0, Standard deviation 0.2560696265957589 %) of -1.04%.
`Cc1cc(NC(=O)C2CCN(c3ccc(C=O)cc3)CC2)cnc1Br` showed an inhibition [1] of 10.6%.
Compound `O=Cc1ccc(N2CCC(C(=O)NCc3ccc(SC(F)(F)F)cc3)CC2)cc1` has an inhibition [1] of 3.18%.
`COc1ccc(-c2cc(NC(=O)C3CCN(c4ccc(C=O)cc4)CC3)[nH]n2)cc1` showed an inhibition [1] of 0.343%.
With `O=C(c1nc2ccccc2[nH]1)N1CCCC[C@H]1c1nc2ccccc2[nH]1` the inhibition (Thailand/16681/1984, Concentration 49.5 uM, Number of replicates 2.0, Standard deviation 0.9679631096613857 %) was -0.099%, the inhibition (Thailand/16681/1984, Concentration 99.01 uM, Number of replicates 2.0, Standard deviation 0.7361712005044555 %) was 0.613% and the inhibition (Thailand/16681/1984, Concentration 198.0 uM, Number of replicates 2.0, Standard deviation 1.3068429485050461 %) was 1.8%.
With `N#Cc1cccnc1N1CCN(C(=O)C2CCN(c3ccc(C=O)cc3)CC2)CC1` the inhibition [1] was 12.3%.
`CCCCCC(=O)N[C@H](C(=O)NCc1cccc(CN)c1)C(C)C` was tested, and the inhibition (Thailand/16681/1984, Concentration 49.5 uM, Number of replicates 2.0, Standard deviation 0.790767685424793 %) was -1.91%, the inhibition (Thailand/16681/1984, Concentration 99.01 uM, Number of replicates 2.0, Standard deviation 0.5529643765331101 %) was -1.86% and the inhibition (Thailand/16681/1984, Concentration 198.0 uM, Number of replicates 2.0, Standard deviation 0.2038996463796708 %) was -0.642%.
`Cc1nccn1-c1ccccc1CNC(=O)C1CCN(c2ccc(C=O)cc2)CC1` showed an inhibition [1] of 15.3%.
Work on `CCn1ccnc(N[C@@H](Cc2c[nH]c3ccccc23)C(=O)N2CCCCC2)c1=O` yielded an inhibition (Thailand/16681/1984, Concentration 49.5 uM, Number of replicates 2.0, Standard deviation 1.8610654084662064 %) of -3.98%, an inhibition (Thailand/16681/1984, Concentration 99.01 uM, Number of replicates 2.0, Standard deviation 1.4549886152586564 %) of -2.19% and an inhibition (Thailand/16681/1984, Concentration 198.0 uM, Number of replicates 2.0, Standard deviation 1.4588150854881121 %) of -1.56%.
